According to the supplement of paper PMC10338343:
± gives the standard deviation. This is a selection; strong and weak results do not stand in their true shares.

Tested on: MIWI (PIWIL1) piRISC loaded with L1MC piRNA (30 nt)
Assay: pre-steady-state target cleavage rate (min^-1); MIWI and MILI are mouse PIWI proteins and EfPiwi is from a freshwater sponge; tags in brackets are library labels; higher = faster piRNA-guided slicing of the target
Settings: guide: L1MC piRNA 5'p-UAACUAAAUACUAUGCAAGCUGUAGGUCCU
In short: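 Cleave-'n-Seq reactions paired 0.1 nM transcribed, DNA-blocked target RNA library with 1 nM active affinity-purified piRISC holding one synthetic guide, plus or minus 500 nM GTSF1 partner protein, in HEPES–potassium acetate buffer at 33 °C for 0–8 or 0–960 min. After sequencing of uncleaved targets and normalisation to depth and weakly complementary targets, the pre-steady-state cleavage rate was taken from a burst-and-steady-state fit. Three trials were pooled, and k3 was capped at 0.0001 min^-1.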

[1] = auxiliary factor: 500 nM mouse GTSF1
[2] = auxiliary factor: none (no GTSF1)

Sequence | pre-steady-state target cleavage rate [1] | pre-steady-state target cleavage rate [2]
AGGACCUUCAGCAUGCAUAGUAUUUAGUUA | 1.21 ± 0.043 | 0.0478 ± 0.011
UCCUGGUACAGGUUGCAUAGAAUUUAGUUA | 0.302 ± 0.052 | 0.0108 ± 0.0039
AGGACCUACAGCUAGCAAAGUAUUUAGUUA | 0.985 ± 0.048 | 0.00821 ± 0.0025
UCGACCUACAGCUUGCAUAGUUUUUAGUUA | 0.464 ± 0.021 | 0.0323 ± 0.0086
UCCUCCUACAGCUUGCAUAGUAUUUACUAA | 0.266 ± 0.038 | 0.00476 ± 0.0027
AGGACCUACAGCUUGCAUACUAUAUAGUUA | 0.31 ± 0.036 | 0.0173 ± 0.004
UCCUGGAUCAGCUUGCAUACUAUUUAGUAA | 0.0988 ± 0.01 | 0.0136 ± 0.0039
UGGACCUACAGCUUGGCAUAGUAUUUAGUUA | 1.01 ± 0.26 | 0.0197 ± 0.0048
UGCACCUACAGCUUGCUUAGUAUUUAGUUA | 1.25 ± 0.092 | 0.031 ± 0.0064
UCCUGGAACAGCUUGCAUAGUAUUUAGAUA | 0.406 ± 0.042 | 0.0172 ± 0.0058
UCCUGGUACAGACUUGCAUAGUAUUUAGUUA | 0.457 ± 0.073 | 0.0228 ± 0.0055
UCCAGCUACAGCUUCCAUAGUAUUUAGUUA | 0.0966 ± 0.022 | 0.00298 ± 0.0021
UGGACCUACAGCUUGCAUACUAUUUAGUUA | 0.363 ± 0.024 | 0.0343 ± 0.008
UCCUGGAUCAGCUUGCAUAGUAAAUAGUUA | 0.282 ± 0.038 | 0.00642 ± 0.0024
UCCACCUACACGUUGCAUAGUAUUUAGUUA | 0.801 ± 0.045 | 0.0145 ± 0.0024
UCCUGGAUGUGCUUGGAUAGUAUUUAGUAA | 0.298 ± 0.048 | 0.0176 ± 0.0062
UCCUGGAACAGCUUGCAUUCUAUUUAGUUA | 0.111 ± 0.015 | 0.00536 ± 0.0041
UCCUCGAACAGCUUGCAUAGUAUUUAGAAA | 0.474 ± 0.043 | 0.00694 ± 0.0025
UGGACGAACAGCUUGCAUAGUAUUUAGAAA | 0.485 ± 0.05 | 0.0157 ± 0.0042
UCCUGGAUGUGCUUGGAUAGUAUUUAGAUA | 0.0371 ± 0.014 | 0.00781 ± 0.0037
UCCACCUACAGCUAGCAUAGUAUUUACUUA | 0.414 ± 0.042 | 0.0177 ± 0.004
UCCUGGUACAGCCUUGCAUAGUAUUUAGUUA | 0.594 ± 0.049 | 0.0422 ± 0.0091
UGGACCUACACGAUGCAUAGUAUUUAGUAA | 0.51 ± 0.05 | 0.00265 ± 0.002
UCCACCUACAGCUUGCAUAGUAAUUAGAUA | 0.242 ± 0.037 | 0.00588 ± 0.0029
UCCACCUACAGCUUGCAUAGUAAUUUGUUA | 0.342 ± 0.038 | 0.011 ± 0.0034

Sequence | pre-steady-state target cleavage rate [1] | pre-steady-state target cleavage rate [2]
UCCUGGAACAGCUUGCAUAGUAUUAGUUA | 0.0655 ± 0.01 | 0.00281 ± 0.0023
UGGACCUACAGCAUGCAUAGUAAUUAGUUA | 0.869 ± 0.063 | 0.0128 ± 0.0043
UGGACCUACAGCUUGCAUAGUUUAUAGUUA | 0.103 ± 0.011 | 0.0119 ± 0.0036
UCCACCUACAGCUAGCAUAGUAUUAAGUUA | 0.516 ± 0.033 | 0.00634 ± 0.0019
UCCUGGAUGAGCUUGCAUAGCAUUUAGUUA | 0.278 ± 0.032 | 0.0295 ± 0.0063
UCCUGGUACAGCAUGCAUAGUAUUUACUUA | 0.166 ± 0.038 | 0.019 ± 0.0049
AGGACCUACAGGUUGCAUAGUUUUUAGUUA | 0.271 ± 0.018 | 0.0236 ± 0.0037
AGGACCUACAGCUUGCAUUGAAUUUAGUUA | 0.287 ± 0.025 | 0.012 ± 0.004
UCCUGGUACAACUUGCAUAGUAUUUAGUUA | 0.855 ± 0.044 | 0.0552 ± 0.011
UCCUGGAUGUCCUGUGCAUAGUAUUUAGUUA | 0.0103 ± 0.0044 | 0.00389 ± 0.0034
UCCUGGAUGAGCUUGCAUAGUAUUUUAGUUA | 0.571 ± 0.047 | 0.0281 ± 0.0094
UCGACCUACAGCAUGCAUAGUAUUUAGAUA | 0.538 ± 0.041 | 0.0119 ± 0.004
UCCUGCUACAGCCUUGCAUAGUAUUUAGUUA | 0.919 ± 0.046 | 0.0245 ± 0.0046
UCCUCCUAGAGCUUGCAUAGUAUUUAGUUA | 0.719 ± 0.056 | 0.0328 ± 0.0048
UCCUGGAUCACCUUGCAUAGUUUUUAGUUA | 0.0425 ± 0.0089 | 0.00716 ± 0.0025
UCCUGGUACAGCUUGGAAAGUAUUUAGUUA | 0.388 ± 0.035 | 0.00594 ± 0.0024
UCCUGGAACAGCUUGCAUUGUAUUUAGUUA | 0.829 ± 0.041 | 0.0279 ± 0.0071
AGGACCUACGGCUUGCAUAGUAUUUAGUUA | 1.27 ± 0.077 | 0.0872 ± 0.017
AGGACCUACAGCUAGCAUAGUAUUUAGAUA | 0.593 ± 0.057 | 0.015 ± 0.0045
UCCUGGAUGUGCUUGCAUAGUACUUUAGUUA | 0.0111 ± 0.0044 | 0.00751 ± 0.0028
AGGACCUACUCCUUGCAUAGUAUUUAGUAA | 0.689 ± 0.056 | 0.0403 ± 0.0084
UCCACCUACAGCUUGCAUAGUAUUUAGGUUA | 0.409 ± 0.062 | 0.0153 ± 0.0045
UCCUGGUUCAGCUUGCAUAGUAUAUAGUUA | 0.46 ± 0.048 | 0.033 ± 0.0093
UCCUGGAACAGCAUGCUUAGUAUUUAGUUA | 0.701 ± 0.059 | 0.0129 ± 0.0038
UCCUCCUACAGCUUGCAUAGAAUUUACUUA | 0.281 ± 0.043 | 0.00732 ± 0.0027

Sequence | pre-steady-state target cleavage rate [1] | pre-steady-state target cleavage rate [2]
UGGAGGUACAGCUUGCAUAGUAUUUAGUUA | 1.35 ± 0.064 | 0.0828 ± 0.015
UCCUGGAUCAGCUUGGAUAGUAAUUAGUUA | 0.27 ± 0.023 | 0.0147 ± 0.0047
UCCACGUACUGCUUGCAUAGUAUUUAGUUA | 1.1 ± 0.05 | 0.052 ± 0.0083
UCCUGGAUCAGCUUGCUUAGUAAUUAGUUA | 0.199 ± 0.022 | 0.0111 ± 0.004
UCCUGGAUGAGCUUGCAUAGUAUUUAGUAA | 0.713 ± 0.061 | 0.0327 ± 0.0088
AGGGACCUACAGCUUGCAUAGUAUUUAGUUA | 1.31 ± 0.086 | 0.102 ± 0.021
UCGAGCUAGAGCUUGCAUAGUAUUUAGUUA | 0.962 ± 0.051 | 0.0483 ± 0.0092
AGGACCUACAGCUUACAUAGUAUUUAGUUA | 1.28 ± 0.064 | 0.0655 ± 0.011
UCGACCUACAGCUUGCAUAGAAUUUAGUUA | 0.526 ± 0.036 | 0.022 ± 0.0064
UCCUCCUACAGCUUGCAAAGUAAUUAGUUA | 0.645 ± 0.031 | 0.00886 ± 0.0023
UCCUCCUACUGCUUGCAUAGUAUUUACUUA | 0.203 ± 0.019 | 0.0222 ± 0.0026
UCCUGCUACUGCUUGCAUAGUAUUUAGAUA | 0.192 ± 0.032 | 0.00766 ± 0.002
UCCUCCUACUAGCUUGCAUAGUAUUUAGUUA | 0.698 ± 0.031 | 0.0459 ± 0.0088
UGGACCUACAGCUUGUAUAGUAUUUAGUUA | 1.77 ± 0.11 | 0.0563 ± 0.012
UGGACCUACACCUUGCAUUGUAUUUAGUUA | 0.637 ± 0.026 | 0.0285 ± 0.0056
UCCUGGUACAGCUUGCAUAGUCUUUAGUUA | 0.403 ± 0.052 | 0.0387 ± 0.0077
AGGACCUUCAGCUUGCAUAGUUUUUAGUUA | 0.409 ± 0.022 | 0.0547 ± 0.012
UCCUGGAACAGCUUGCAUACUAUUAAGUUA | 0.124 ± 0.021 | 0.00995 ± 0.0032
UCGACCUACAGGUUGCAUUGUAUUUAGUUA | 0.922 ± 0.044 | 0.0147 ± 0.003
AGGACCUACAGCUAGCAUAGUAAUUAGUUA | 0.745 ± 0.06 | 0.0091 ± 0.0021
AGGACCUUCAGCUUGCAUAGAAUUUAGUUA | 0.428 ± 0.033 | 0.0276 ± 0.0061
UGGACCUACAGCUUGCAUUGUAUUUACAAA | 0.0491 ± 0.01 | 0.00318 ± 0.002
UCCUGGUUCAGCUUGCAUAGUUUUUAGUUA | 0.242 ± 0.031 | 0.0386 ± 0.0094
AGGACCUAGAGCUUGCAUAGUAUUUACAAA | 0.123 ± 0.033 | 0.00394 ± 0.003
AGGACGUACAGCUUGCAUACUAUUUAGUUA | 0.246 ± 0.023 | 0.0258 ± 0.0064

Sequence | pre-steady-state target cleavage rate [1] | pre-steady-state target cleavage rate [2]
UCCUGGUACAGCUUGCAUAGUAUAUUGUUA | 0.24 ± 0.05 | 0.0215 ± 0.0062
UCGAGCUACAGCUUGGAUAGUAUUUAGUUA | 1.11 ± 0.086 | 0.0477 ± 0.0076
UCCAGCUACAGCUUGCAUACUAUUUAGUUA | 0.412 ± 0.021 | 0.0316 ± 0.0051
AGGACCUACAGCUUGAUAGUAUUUAGUUA | 1.21 ± 0.082 | 0.0133 ± 0.0041
UCCUGGAACAGCUUGCAUAGUAUUUAGCUUA | 0.283 ± 0.043 | 0.0543 ± 0.013
UCCUGGAUCAGCUUGCAUAGUAAUUAGUUA | 0.677 ± 0.034 | 0.0324 ± 0.0094
UCCUGGUACAGCUUGCAUAGUAUAUAGUAA | 0.272 ± 0.036 | 0.00905 ± 0.0031
AGGACCUACAGCUUGCAUAGUAUUAAGUUA | 0.712 ± 0.055 | 0.0489 ± 0.011
ACGACCUACAGCUUGCAUAGUAUUUAGUUA | 1.56 ± 0.064 | 0.0997 ± 0.017
UCGAGGAACAGCUUGCAUAGUAUUUACAAA | 0.517 ± 0.063 | 0.00349 ± 0.0022
UGGUGCUACAGCUUGCAUAGUAUUUAGAAA | 0.171 ± 0.029 | 0.00502 ± 0.0025
UCCUGGAACACCUUGCAAAGUAUUUAGUUA | 0.511 ± 0.057 | 0.009 ± 0.0027
UCCUGCUACAGGUUGCAUAGUAUUUUGUUA | 0.774 ± 0.078 | 0.0176 ± 0.0036
UCCUGGAUGAGCUUGCAUAGUAUUUAGAUUA | 0.33 ± 0.069 | 0.0263 ± 0.0096
UCCUGGAACAGCCUGCAUAGUAUUUAGUUA | 0.989 ± 0.053 | 0.0552 ± 0.01
UCCUGGUACAGCUUGCAUAGUAAAUAGUUA | 0.459 ± 0.07 | 0.00644 ± 0.0031
UCCUGGUAGAGCUUGCAAAGUAUUUAGUUA | 0.776 ± 0.035 | 0.0289 ± 0.0077
UCCUGGAACAGCUUGCAUAGUAUUUUAGUUA | 0.875 ± 0.046 | 0.0159 ± 0.003
UCCACCUAGAGCUUGCAUAGUAUUAAGUUA | 1 ± 0.12 | 0.0172 ± 0.0031
UCCUGGUACAGCUUGCAUUGUAUUUUGUUA | 0.258 ± 0.049 | 0.0133 ± 0.0036
UCGACGAUCAGCUUGCAUAGUAUUUAGUAA | 1.05 ± 0.063 | 0.048 ± 0.011
UCGACCUACAGCUUGCAUAGUAUUUUAGUUA | 1.21 ± 0.053 | 0.0302 ± 0.0073
UGGACCUACAGCUUGCAUAGUAUUUACAAA | 0.277 ± 0.035 | 0.00701 ± 0.0024
AGCACCUACAGCUUGCAUACUAUUUAGUUA | 0.471 ± 0.099 | 0.00711 ± 0.0024
UCCUGGAUGAGCUAGCAUAGUAUUUAGUAA | 0.332 ± 0.029 | 0.00644 ± 0.0029
